According to PMC4336329 (PLoS ONE, 2015):
The campaign covered roughly 310,000 compounds. About 14,000 (4.5%) showed an effect of 50% or more. The effect is printed as a negative number. The list shows a part of the results.

Biological target: human ether-à-go-go-related gene (hERG) potassium channel (human, UniProt Q12809)
Experiment: primary screen, population patch clamp on CHO cells stably expressing hERG
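Also: peak tail current of the secondary pulse compared with the same well before compound.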

Chain of human ether-à-go-go-related gene (hERG) potassium channel (Q12809 whole entry, looked up): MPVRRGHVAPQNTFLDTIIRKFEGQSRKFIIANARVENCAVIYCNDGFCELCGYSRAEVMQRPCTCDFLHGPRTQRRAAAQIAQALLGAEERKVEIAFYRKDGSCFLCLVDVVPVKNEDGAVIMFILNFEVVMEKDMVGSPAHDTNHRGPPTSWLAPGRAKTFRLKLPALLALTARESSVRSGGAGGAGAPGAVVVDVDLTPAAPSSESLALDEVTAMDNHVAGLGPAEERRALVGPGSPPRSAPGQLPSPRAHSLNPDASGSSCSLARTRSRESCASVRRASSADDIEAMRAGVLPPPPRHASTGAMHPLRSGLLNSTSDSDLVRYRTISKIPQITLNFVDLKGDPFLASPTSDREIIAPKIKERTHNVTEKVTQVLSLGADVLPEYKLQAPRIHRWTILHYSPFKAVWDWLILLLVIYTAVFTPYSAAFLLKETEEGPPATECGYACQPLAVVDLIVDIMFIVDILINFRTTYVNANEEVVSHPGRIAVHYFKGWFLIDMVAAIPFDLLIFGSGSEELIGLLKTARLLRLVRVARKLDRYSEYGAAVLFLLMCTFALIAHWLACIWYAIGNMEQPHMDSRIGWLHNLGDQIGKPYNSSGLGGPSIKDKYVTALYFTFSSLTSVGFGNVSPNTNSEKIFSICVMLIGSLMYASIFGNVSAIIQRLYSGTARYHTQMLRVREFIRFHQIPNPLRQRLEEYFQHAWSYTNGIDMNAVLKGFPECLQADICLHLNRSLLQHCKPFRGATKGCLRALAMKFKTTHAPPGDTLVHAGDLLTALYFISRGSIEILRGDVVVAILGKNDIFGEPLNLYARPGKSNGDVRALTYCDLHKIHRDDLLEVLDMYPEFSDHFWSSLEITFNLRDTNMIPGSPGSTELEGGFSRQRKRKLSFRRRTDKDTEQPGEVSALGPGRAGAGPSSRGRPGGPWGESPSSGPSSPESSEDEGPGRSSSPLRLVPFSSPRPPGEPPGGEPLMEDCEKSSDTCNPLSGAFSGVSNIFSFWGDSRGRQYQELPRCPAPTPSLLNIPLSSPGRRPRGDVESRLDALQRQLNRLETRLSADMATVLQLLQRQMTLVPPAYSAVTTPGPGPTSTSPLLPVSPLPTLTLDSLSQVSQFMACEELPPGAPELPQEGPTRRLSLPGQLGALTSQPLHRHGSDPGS

| Compound | hERG current change (%, negative = inhibition) at 10uM |
| --- | --- |
| Cc1csc(NC(=O)C(Cc2ccccc2)n2cccc2)n1 (stereo not drawn) | -1.9% |
| Cc1c(C(=O)NCC2CCCO2)oc2ccc(Br)cc12 (stereo not drawn) | -14% |
| CCOC(=O)c1c(C)c(C(=O)N2CCCCCC2)c(C)n1CC | 9.15% |
| CC1(C)CC(=O)C(C=NCCc2ccccn2)=C(O)C1 | 8.58% |
| CCCCCn1c(=O)[nH]c2cc(C(=O)NCCN(CC)CC)ccc2c1=O | -19.9% |
| CCCC(=O)Nc1nnc(SCC(=O)Nc2ccc3c(c2)OCO3)s1 | 3.08% |
| C/C(=N\NC(=S)Nc1cc(S(=O)(=O)N2CCOCC2)ccc1Cl)c1ccc(N2CCOCC2)cc1 | 6.22% |
| CC(=O)N1CCc2cc(C(=O)CN3CCCN(Cc4ccc(F)cc4)C3)ccc21 | 1.87% |
| CCN1C(=O)[C@H]2[C@@H](c3ccc(SC4CCCCC4)c(OC)c3)N3CCCC[C@@]3(C(=O)OC)[C@H]2C1=O.O=C(O)C(F)(F)F | 13% |
| Cc1ccc(S(=O)(=O)N2CCC(C(=O)OCc3c(C)noc3C)CC2)cc1C | -15.8% |
| O=C(Nc1ccc2c(c1)OCO2)C(c1ccccc1)N1CCC2(CC1)OCCO2 (stereo not drawn) | -0.953% |
| CC(C)(C)NC(=O)CN(C(=O)c1csnn1)c1cccc2c1CCCC2 | -3.36% |
| COCCNC(=O)c1ccccc1NC(=O)C1COc2ccccc2O1 (stereo not drawn) | -1.17% |
| Cc1nc(C)c(C(=O)N(c2ccc(C)c(C)c2)C(C(=O)NCc2ccco2)c2ccccc2)s1 (stereo not drawn) | -13.4% |
| Cc1cc(C)c2c(CCl)cc(=O)oc2c1 | -1.06% |
| CCCCCCCCC(=O)NNC(=O)c1c(O)c2ccccc2n(CCC)c1=O | 19.1% |
| CCc1ccc(/C=C2/SC(=S)N(CC(=O)Nc3nc4ccccc4s3)C2=O)cc1 | 14.4% |
| CCc1ccc(NC(=O)CS(=O)CC(=O)Nc2ccc(-n3cnnn3)c(C)c2)cc1 (stereo not drawn) | 2.15% |
| c1ccc(-c2nnc(CN3CCN(c4ccccc4)CC3)o2)cc1 | -8.8% |
| COc1ccc(C(=O)c2ccc(CC#N)s2)cc1 | 14.2% |
| CCOc1ccc2[nH]c(=O)c(CN(CCCO)C(C)=O)cc2c1 | 3.62% |
| CCOC(=O)Cn1cncc1-c1ccc([N+](=O)[O-])cc1 | 3.34% |

| Compound | hERG current change (%, negative = inhibition) at 10uM |
| --- | --- |
| COc1ccc(C2(O)CCN(CC(=O)Nc3nccs3)CC2)c(OC)c1 | -40.1% |
| C/C(=N/NC(=O)c1cc(Cl)ccc1O)C12CC3CC(CC(C3)C1)C2 | 5.8% |
| CNc1nc2[nH]c(=O)c3c(c2s1)OC(N)=C(C#N)C3c1cccc(F)c1 (stereo not drawn) | 11.1% |
| COc1cccc(-c2cc3c(-n4cccc4)ncnc3o2)c1 | 4.32% |
| COC(=O)c1ccccc1S(=O)(=O)N1CCC(c2nc3ccccc3o2)CC1 | -29.1% |
| O=C(CSc1nc2ccc(Cl)cc2[nH]1)NCCc1ccc(Cl)cc1 | -2.88% |
| Cc1ccc(NC(=O)C(=O)NCCCN2CCOCC2)c(C)c1 | -8.87% |
| CCOC(=O)C(C)Oc1ccc2c(CC)cc(=O)oc2c1C (stereo not drawn) | -12.6% |
| O=C(NCCc1cccnc1)c1cc(COc2ccc(F)cc2Cl)on1 | -7.87% |
| CCc1cc(=O)oc2cc(OCC(=O)NCCCN3CCOCC3)c(Cl)cc12 | 4.59% |
| Cc1ccnn1C(C)C(=O)O (stereo not drawn) | 26.3% |
| Cc1cc(C)cc(N(C(=O)CNC(=O)c2ccco2)C(C(=O)NC2CCCC2)c2cccnc2)c1 (stereo not drawn) | -6.29% |
| O=C(CN1CCN(c2ccc(O)cc2)CC1)Nc1ccc(SC(F)F)cc1 | -74.7% |
| CCN(CC)C(=O)CCc1nnc(CCc2c[nH]c3ccccc23)o1 | 6.93% |
| COc1ccc(S(=O)(=O)N(C)c2ccc(C(=O)NCc3ccco3)cc2)cc1 | -11.9% |
| CCOC(=O)Cc1ncccc1C(=O)Nc1ccc(Oc2ccccc2)cc1 | 5.86% |
| Cc1ccc(C(=O)Oc2csc(=S)n2C(=O)c2ccc(C)cc2)cc1 | 19% |
| O=C1CS/C(=N\N=C\c2ccco2)N1c1ccccc1 | 9.29% |
| Nc1nc(-c2ccc3c(c2)CCO3)cs1 | 11.4% |
| CSCCC(/C(O)=C(\C#N)c1nc2ccccc2[nH]1)N1C(=O)c2ccccc2C1=O (stereo not drawn) | -10.1% |
| COc1cc2c(C(=O)NC3CCCCCC3)cn(C)c(=O)c2cc1OC | 8.02% |
| O=C1c2ccccc2C(O)N1Cc1cccs1 (stereo not drawn) | 7.7% |

| Compound | hERG current change (%, negative = inhibition) at 10uM |
| --- | --- |
| O=S(=O)(NCCSc1nnc(-c2ccco2)n1-c1ccccc1)c1ccccc1 | -25.5% |
| COc1ccc(C(=O)Nc2cc(C(=O)O)cc(C(=O)O)c2)cc1Cl | 19.5% |
| O=C(CSc1nc2ccccc2c(=O)[nH]1)Nc1ccc(Br)cc1 | 9.32% |
| Cc1[nH]c2ccc(OC(=O)N3CCOCC3)cc2c1C(=O)OC(C)C | -13% |
| CC(=O)Nc1ccc(NC(=O)Nc2ccc3c(c2)N(C)C(=O)CS3)cc1 | 18% |
| COC(=O)CSc1n[nH]c(-c2ccncc2)n1 | 16.6% |
| OCC#Cc1cnc2ccccc2c1 | 3.98% |
| Cc1cccc(C)c1NC(=O)CNC(=O)c1ccc2c(c1)OCCO2 | 14.7% |
| O=C(O)c1ncc(Cl)c(Cl)c1Cl | 2.37% |
| O=C1CC(Sc2ncccn2)C(=O)N1c1ccccc1 (stereo not drawn) | 1.03% |
| CCOc1ccc(OCC)c(NC(=O)CN2CCN(c3cc(C)ccc3C)CC2)c1.Cl | -9.35% |
| COc1ccc(N2CC(C(=O)OCC(=O)Nc3cccc(C)c3)CC2=O)cc1 (stereo not drawn) | -30.9% |
| CCc1ccc(C(=O)COC(=O)C(Cc2ccccc2)NC(=O)C2CCC(C)CC2)cc1 (stereo not drawn) | 0.334% |
| Cc1ccc(OCCOC(=O)CCc2nc3ccccc3c(=O)[nH]2)cc1 | 4.32% |
| COc1ccc(S(=O)(=O)N2CCCCC2)cc1NC(=O)Cc1cccs1 | 8.53% |
| COc1ccccc1C(CNC(=O)c1ccc(S(=O)(=O)N2CCCCC2)cc1)N(C)C (stereo not drawn) | -19.4% |
| O=C(C[n+]1cc(-c2ccc(F)cc2)n2c1CCC2)Nc1nc(-c2ccc(F)cc2)cs1.[Cl-] | -76.7% |
| O=C(NCC1(N2CCCCC2)CCCCC1)c1ccc(NS(=O)(=O)c2ccc(F)cc2)cc1 | -42.9% |
| CCc1noc(C)c1C(=O)Nc1nc2ccc(OC)cc2s1 | -10.3% |
| O=C1c2ccc(-c3ccc4c(c3)C(=O)N(CCO)C4=O)cc2C(=O)N1CCO | 14.6% |
| N/C(=N\c1nc2ccccc2o1)NC(=O)c1ccc(F)cc1 | -17.5% |
| CCOC(=O)c1cc(-c2ccc(F)cc2)n(CC(=O)Nc2nccs2)c1C | 1.55% |

| Compound | hERG current change (%, negative = inhibition) at 10uM |
| --- | --- |
| COC(=O)CN1C(=O)[C@H]2[C@@H](C3CC3)N3C(=O)CN(Cc4ccc(-c5ccccc5)cc4)C(=O)[C@@]3(Cc3ccccc3)[C@H]2C1=O | -42.5% |
| CC(OC(=O)CN1C(=O)C2CC=CCC2C1=O)C(=O)Nc1ccc(F)cc1Cl (stereo not drawn) | -15.1% |
| O=C(Cn1nnc2ccccc21)NNC(=O)c1ccccc1 | 19% |
| Cc1ccc(-n2cc(CN3CCN(Cc4nccn4C)CC3)c(-c3cccc(C)c3)n2)cc1 | -62.7% |
| CN(CC(=O)Nc1cccc(C#N)c1)Cc1ccc(Cl)cc1 | -34.1% |
| CCOC(=O)C(C)n1cnc2scc(-c3ccc(C)c(C)c3)c2c1=O (stereo not drawn) | 10.7% |
| CCn1c(CN2CCN(c3cccc(C)c3C)CC2)n[nH]c1=S | 6.69% |
| O=C(CC1C(=O)NCCN1Cc1c(F)cccc1Cl)NCCCn1cccn1 (stereo not drawn) | 10.8% |
| COc1cccc(OC)c1OCC(C)CNCC1CCCO1.Cl (stereo not drawn) | -8.61% |
| O=C(NC1CCCCC1)c1cc(C(=O)c2ccccc2Br)c[nH]1 | 22.7% |
| CC(=O)Nc1ccc(C(=O)NNC(=O)CCCCC(=O)NNC(=O)c2ccc(NC(C)=O)cc2)cc1 | -2.82% |
| O=C(NC1CCCCC1)N1CCN(c2ccc([N+](=O)[O-])cc2)CC1 | -92.4% |
| Cc1cccc(Oc2ccccc2NS(=O)(=O)c2ccc(CCC(=O)O)cc2)c1 | -39.8% |
| CCOC(=O)C1=C(O)/C(=C/c2ccc(OCC(=O)O)c(OCC)c2)SC1=Nc1ccc(C)cc1 | 24.8% |
| O=C(Cc1cccs1)Nc1ccccc1C(=O)O | -1.79% |
| CCCN(Cc1cc2cc(OC)ccc2[nH]c1=O)C(=O)c1ccncc1 | -17% |
| CNC(C)C#Cc1ccc2c(=O)c3c(OC)cccc3oc2c1 (stereo not drawn) | 0.579% |
| O=C(NCCNS(=O)(=O)c1cccc(C(F)(F)F)c1)c1cc(OCC(F)(F)F)ccc1OCC(F)(F)F | 18% |
| CN1CCN(NC(=O)c2ccc(F)cc2)CC1 | 23.1% |
| O=CN1CCN(C(=O)c2ccc(-c3nc4ccccc4s3)s2)CC1 | -34.2% |
| Cl.OCCCNCc1ccc(Cl)cc1Cl | -13.3% |
